Measurements reported in the RNAGym collection of RNA variant scans (doi:10.7554/elife.90254).
The source gives no read counts; variants with many changes may rest on few reads.

B1: LINE1-mini (parent)
chain: GGCAGAGCUCAACACAGCGUGGCAAAGUGGCUGUGGCUAGACUGCC

Variants of: B1
Experiment: self-cleavage, relative activity (ratio to wild type); higher = more cleavage; in vitro, sequencing; the parent is a self-cleaving ribozyme
Work on GGCAGAGCUCAACACAGCAUGGAAAAGUUGCUGUGGCUAGACUGCC yielded a self-cleavage of 0.21. For GGCAGAGCUCAACACAGCAUGGCAAAGUGCCCGUGGCUAGACCGCC, the self-cleavage was 0.05. In the case of GGCAGAGCUCAACACAGCAUGGCAAAGUUGCUGAGGCUAGACUGCC, the self-cleavage is reported as 1.2. Variant GGCAGAGCUCAACACAGCAUGGCAAAUUGACUCUGGCUAGACUGCC has a self-cleavage of 0.06. For GGCAGAGCUCAACACAGCCUGGCUAAGUGUCUGCGGCUAGACUGCC, the self-cleavage was 0.04. Variant GGCAGAGCUCAACACAGCAUGGCAUAGUGGCUAUGGCUAGACUGCC has a self-cleavage of 0.03. Variant GGCAGAGCUCAACACAGCAUGGAAAAGUGGCUAUGGCUAGACUGCC has a self-cleavage of 0.2. GGCAGAGCUCAACACAGCCUGGCAAUGUGGCUGUGGUUAGACUGCC gave a self-cleavage of 0.01. GGCAGAGCUCAACACAGCAUGGCAAAGUGGCUGUGGCUAGUUUGCC showed a self-cleavage of 0.06. GGCAGAGCUCAACACAGCAUGGCAAAGUGGCCGUGGCUAAACUGCC showed a self-cleavage of 0.08. GGCAGAGCUCAACACAGCAUGCCAAAGCGGCUGUGGCUAGACUGCC gave a self-cleavage of 0.29. GGCAGAGCUCAACACAGCAUGGCAAAGUGGCGGUGACUAGACAGCC gave a self-cleavage of 0.06. In the case of GGCAGAGCUCAACACAGCCUGGCAGAGUGGCUGUGCCUAGACUGCC, the self-cleavage is reported as 0.19. For GGCAGAGCUCAACACAGCCUGGCACAAUUGCUGUGGCGAGACUGCC, the self-cleavage was 0.06. For GGCAGAGCUCAACACAGCAUCGCAGAGUGGCUGUGACUAGACUGCC, the self-cleavage was 0.05. GGCAGAGCUCAACACAGCAUGGCAAAGUGGAUGUGGCUAGAUUGCC showed a self-cleavage of 0.06. With GGCAGAGCUCAACACAGCAUUGCAAAGUGGCUGUGGGUAGACUGCC the self-cleavage was 0.02. For GGCAGAGCUCAACACAGCAUGGCAAAGUGGCUGUGGCUGGACUGCU, the self-cleavage was 0.03. Work on GGCAGAGCUCAACACAGCCUGGCAUAGUGGCUGUGGUUAGACUGAC yielded a self-cleavage of 0.07. For GGCAGAGCUCAACACAGCCUGGCGAACUGGCUGUGGUUAGACUGCC, the self-cleavage was 0.01. Work on GGCAGAGCUCAACACAGCAUGGCAAAUUGGCUGUGGCUCAACUGCU yielded a self-cleavage of 0.02. For GGCAGAGCUCAACACAGCCUGGCAAUGUGGCUGUGGCUACACUGCC, the self-cleavage was 0.05. Work on GGCAGAGCUCAACACAGCAUGUCAAAGUGGCUGUGGCUAGCCUGCC yielded a self-cleavage of 0.02. Work on GGCAGAGCUCAACACAGCAUAGCAAAGUGGCUAUACCUAGACUGCC yielded a self-cleavage of 0.22. Variant GGCAGAGCUCAACACAGCAUGGCAAAGUGGCCGUGGCUAGACUGAC has a self-cleavage of 0.02. Variant GGCAGAGCUCAACACAGCAUGGCAAAGUGGGUGUGGCUAGACUGCA has a self-cleavage of 0.09. For GGCAGAGCUCAACACAGCAUGGCAAAGUGGCUGUCGCUAGACUGCA, the self-cleavage was 0.05. GGCAGAGCUCAACACAGCCUGGCAACGUGGCUGUGGCAAGACUGCC showed a self-cleavage of 0.03. GGCAGAGCUCAACACAGCAUGGCAAGGUGACUGUGGCUAGACUGCC gave a self-cleavage of 1.83. In the case of GGCAGAGCUCAACACAGCAUGGGAAAGUGGAUGUGGCUAGACUGUC, the self-cleavage is reported as 0.27. With GGCAGAGCUCAACACAGCAUGGCAAAGUAGUUGUGGCCAGACUCCC the self-cleavage was 0.01. In the case of GGCAGAGCUCAACACAGCAUGGAAAAGUGGGUGUGGCUAGACUGCC, the self-cleavage is reported as 0.1. For GGCAGAGCUCAACACAGCAUGGCAAAGUGUCUCUGGCUAGACUGCC, the self-cleavage was 0.11. Variant GGCAGAGCUCAACACAGCCUGGCACAAUGCCUGUGGCUAGACUGAC has a self-cleavage of 0.08. GGCAGAGCUCAACACAGCCUGGAAAAGUGGGUGUGGCUAGUCUGCC gave a self-cleavage of 0.08. With GGCAGAGCUCAACACAGCCUGGCGAAGGGGCUGUGGCUAGACUGCC the self-cleavage was 0.05. GGCAGAGCUCAACACAGCAUCCCAAAGUGGCUGUGGCUAGUCAGCC showed a self-cleavage of 0.02. In the case of GGCAGAGCUCAACACAGCAUGGCAAAGUGGCUUUGGCUAUACUGCC, the self-cleavage is reported as 0.1. Variant GGCAGAGCUCAACACAGCAUCGCAAAAUGGCUGUGGCUAGACUGCC has a self-cleavage of 0.13. GGCAGAGCUCAACACAGCAUGGCAACGUGGCUUUGGCUAGACUGCC gave a self-cleavage of 0.27. Variant GGCAGAGCUCAACACAGCCUGGCAAGGUGGCUGUGGCUAGACCGCC has a self-cleavage of 0.01. For GGCAGAGCUCAACACAGCAUGGCAAACUGGAUGUAGCUAGACUGCC, the self-cleavage was 0.02. For GGCAGAGCUCAACACAGCAUGGCAAAGUGUCUGUGGCUAGACAUCC, the self-cleavage was 0.19. GGCAGAGCUCAACACAGCAUGGCAAAGGGGCCGUGGCUAGACUGCC showed a self-cleavage of 0.08. Work on GGCAGAGCUCAACACAGCAUGGCAAAGGGGCCGUGGCUAGGCUGCC yielded a self-cleavage of 0.14. GGCAGAGCUCAACACAGCAUGGCAAUGUGGCUGUAGCUAGCCUGCU gave a self-cleavage of 0.09. GGCAGAGCUCAACACAGCAUGGCAAAGUGGCAGUUGCUAGACUGCC gave a self-cleavage of 0.06. With GGCAGAGCUCAACACAGCAUGGUAAAGUGGCUGUGGCCAGGCUGCC the self-cleavage was 0.28. GGCAGAGCUCAACACAGCAUGGCAAAGUGGCUGUGGCUAGCCUUCC gave a self-cleavage of 0.04. Work on GGCAGAGCUCAACACAGCAUGGCAAAGUGACUGUGGCUACACCGCC yielded a self-cleavage of 0.02. With GGCAGAGCUCAACACAGCAGGGCAAAGUGGCUGCGGCUAGACUGCC the self-cleavage was 0.06. For GGCAGAGCUCAACACAGCAUGGCAAAGUAGCUGUGGUUAGACUGCC, the self-cleavage was 0.06. In the case of GGCAGAGCUCAACACAGCAUGGCAAAUUCGCUGUGGCUCGCCAGCC, the self-cleavage is reported as 0.05. GGCAGAGCUCAACACAGCAUGGCAAAGUGUCUGUGGCAACACUGCC showed a self-cleavage of 0.22. In the case of GGCAGAGCUCAACACAGCAUCGCAAAGUGGCUGGGGCUAGACUGCC, the self-cleavage is reported as 0.13. Work on GGCAGAGCUCAACACAGCAUGACGAAGUGGCUGUGGCCAGACUGCC yielded a self-cleavage of 0.35.
